# Source: PubChem BioAssay AID504444 (National Center for Advancing Translational Sciences (NCATS), 2011)
# Out of some 360,000 compounds screened, about 7,500 (2.1%) were called active. Not shown: some 20% with an inconclusive outcome. The call rests on the fitted dose curve; in most records, active means well fitted inhibition curve with a large enough effect; inconclusive means small, poorly fitted or top-dose-only effect, or effect the other way; inactive means flat fitted curve, though single readings scatter. This is a selection; strong and weak results do not stand in their true shares. Some compounds were tested as several samples or in several runs, with calls that do not always agree.
# Assay: Nrf2 qHTS screen for inhibitors; further: nearly all actives have a fitted effect of over 60% in size
# Details: A549 ARE-Fluc reporter, luciferase luminescence, 18-24 h; series mostly up to 46 µM; activity change, negative = inhibition: at the top concentration
# Outline: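 Two sequential reads on A549 ARE_Fluc cells exposed to compound for 18-24 h: a CellTiter-Fluor fluorescence read for viability, then a luciferase luminescence read for Nrf2/ARE activity.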
# On the % scale 0 is the no-effect control and ±100 the full control effect; potency means the concentration at half of the fitted maximal effect.
SMILES,"activity change, negative = inhibition",Potency
OCC[C@H]1C[C@@H](O)[C@H](O)[C@@]2(Cc3ccccc3CO2)O1,inactive: -4.36%,–
COc1cccc(NC(=O)CN2C(=O)COc3ccc(S(=O)(=O)N4CCOCC4)cc32)c1,inactive: 0%,–
COc1ccc(S(=O)(=O)N2CCN(C(=O)c3cc(-c4ccc(Br)cc4)n[nH]3)CC2)cc1OC,–,active: 20.6 µM
Cc1ccc2nc(C(F)(F)F)c(C#N)c(N)c2c1,–,active: 3.66 µM
Cc1cccc(C(=O)Nc2nnc(S(=O)(=O)N3CCOCC3)s2)c1,inactive: 2.12%,–
COc1ccccc1CNS(=O)(=O)c1c(C)nc2sccn2c1=O,inactive: 7.73%,–
COc1cccc(CN(C)C(=O)c2cc(S(=O)(=O)N3CCN(c4ccccc4)CC3)ccc2Cl)c1,–,active: 20.6 µM
CC(=O)C[C@@H](O)CC(=O)[C@@H]1OC(=O)[C@H](C)C/C=C\Cc2ccccc21,inactive: 3.65%,–
Cn1nc(C(=O)N2CCN(S(=O)(=O)c3ccc(Cl)cc3)CC2)c2ccccc2c1=O,–,active: 23.1 µM
C[C@@H]1CC[C@]2(O[C@@H](CCO)C[C@H](O)[C@H]2O)O1,inactive: 1.15%,–
COCCNC(=O)CCCN1C(=O)c2ccccc2Sc2ncccc21,inactive: -9.18%,–
O=C(c1cccc(C(F)(F)F)c1)C1CCCN(Cc2cccc(OCCO)c2)C1 (stereo unspecified),inactive: -6.07%,–
O=C(CCN1C(=O)/C(=C\c2ccccc2)SC1=S)NCCCN1CCOCC1,inactive: 2.18%,–
Cc1ccc(-c2n[nH]c(=S)n2/N=C/C=C/c2ccccc2[N+](=O)[O-])cc1,inactive: -18.3%,–
CCOc1cc(/C=C2\SC(=N)N(c3nccs3)C2=O)ccc1OCCN1CCOCC1,–,active: 18.4 µM
COCCCNC(=O)CSc1c2c(nc3ccc(Cl)cc13)CCCC2,inactive: -11.6%,–
COc1ccc(N2CCN(C(=O)c3ccc(CS(=O)(=O)c4ccc(Br)cc4)o3)CC2)cc1,inactive: 4.22%,–
COc1cccc(-c2cc(C(=O)Nc3c(C)nn(Cc4ccccc4Cl)c3C)no2)c1,–,active: 6.51 µM
CCc1nnc(NC(=O)c2nc(S(=O)(=O)Cc3ccc(C)cc3)ncc2Cl)s1,inactive: 9.7%,–
CC(C)c1ccc(OCC(=O)NC(Cc2c[nH]c3ccccc23)C(=O)O)cc1 (stereo unspecified),inactive: 5.56%,–
CC(=O)Nc1cc(OC(C)=O)c2nonc2c1OC(C)=O,–,active: 14.6 µM
CC(=O)N1CCOc2cc(S(=O)(=O)NC(C)c3ccccc3)c(Cl)cc21 (stereo unspecified),inactive: -21.2%,–
Cc1cc(-c2ccc(C)c(S(=O)(=O)NCc3cccc(Br)c3)c2)on1,inactive: -29.6%,–
C[C@@H]1CC[C@]2(O[C@H](CCO)C[C@H](O)[C@H]2O)O1,inactive: 11%,–
CC[C@@H]1CCCCc2ccccc2[C@@H](C(=O)C[C@@H](O)CC(C)=O)OC1=O,inactive: 15.8%,–
C=CC[C@@H](CC(=O)N[C@@H](CO)Cc1ccccc1)C(=O)N[C@@H](COC(=O)[C@@H](CC=C)Cc1ccc(F)cc1)Cc1ccccc1,inactive: -1.77%,–
